Laboratory results taken from PubChem BioAssay AID1347076 (National Center for Advancing Translational Sciences (NCATS), 2019).
Among all 400,000 compounds or so, about 13,000 (3.2%) were called active. About 18% were inconclusive and are not listed. Calls come from the whole dose curve; as a rule, active = well fitted cell-killing curve with a large enough effect; inconclusive = small, poorly fitted or top-dose-only effect, or effect the other way; inactive = flat fitted curve, though single readings scatter. Some compounds were tested as several samples or in several runs, with calls that do not always agree. Some entries of the source have several records that differ or are many. The other results are left out here. An entry can have further records. The records of an entry are repeated measurements (runs, samples, wells, individuals or studies). Marks in square brackets tell the records apart. The letters are not those of the source and start again with each entry.

Assay: qHTS assay for MDR1-selective chemotherapeutics: Primary screen using the drug-selected MDR subline cells KB-V1; note: nearly all actives have a fitted effect of over 60% in size
Details: KB-V1 MDR cells viability, CellTiter-Glo, 72 h; series mostly up to 46.1 µM
Excerpt: A prime difficulty in effectively treating cancer is the development of cellular resistance to multiple structurally unrelated anticancer drugs, a phenomenon known as multidrug resistance (MDR). […] Numerous strategies to overcome P-gp-mediated MDR have been explored, including the design of drugs that evade recognition and efflux, and development of inhibitors to block efflux and restore drug accumulation. […] An alternative approach is to exploit resistance by identifying drugs that target MDR cells over the non-resistant parental cells from which they were selected. […] The development of MDR1-selective agents represents a new strategy for resolving multidrug resistance, as it remains a long-standing clinical challenge for cancer chemotherapy.
Our goal is to identify compounds that selectively kill P-gp-expressing MDR cells. We will identify MDR1-selective compounds by comparing toxicity of compounds in the screening library against parental, drug-naive (KB-3-1) adenocarcinoma cells as well as their drug-selected MDR sub-line (KB-V1). The differential toxicity of compounds against these two cell lines will be used to identify MDR1-selective compounds, whose cytotoxicity is potentiated, rather than diminished, by P-gp expression. This assay will be utilized to conduct a quantitative high-throughput screen (qHTS) in collaboration with the NIH Chemical Genomics Center to identify selective agents, and probe hits arising from the screen will be validated using secondary assays and characterized through a well-established follow-up research program. This screen was run against the entire NCGC library collection of about 400,000 compounds.
NIH Molecular Libraries Probe Production Network [MLPCN]
NIH Chemical Genomics Center [NCGC]
PI: Michael Gottesman, National Cancer Institute, NIH
Briefly, 5 microL of media containing either KB-V1 cells (columns 1-2, 4-48) are dispensed into Greiner white, treated solid-bottom 1536-well assay plates (media-only control is added to column 3). Compounds are then transferred via Kalypsys pin tool equipped with 1536-pin array (10 nL slotted pins, V&P Scientific, San Diego, CA). Following addition of compound, the plates are incubated at 37 degrees C for 72 hours. CellTiter-Glo (2.5 µL/well) is then added, and the plates are read in a ViewLux reader (Perkin-Elmer, clear luminescence filter, 1 second exposure, 1x binning) following a 10 minute incubation. All cells are dispensed in DMEM phenol-red free media containing 10% FBS.
Library plates were screened starting from the lowest and proceeding to the highest concentration. Vehicle-only plates, with DMSO being pin-transferred to columns 5-48, will be inserted uniformly at the beginning and the end of each library in order to monitor and record any shifts in the background, which can be affected by reagent dispensers or loss in enzyme activity over time. Screening data will be corrected, normalized, and concentration-effect relationships will be derived by using publicly-available NCGC, NCATS curve fitting algorithms (http://ncgc.nih.gov/pub/openhts).
Potency is the fitted concentration of half-maximal effect.

| Compound | Potency |
| --- | --- |
| CCCN1C(=O)C(Cc2nc3ccccc3c(=O)n2-c2ccccc2)c2cc(C)ccc21 (stereo unspecified) | active: 4.11 µM [sample A] and inactive [sample B] |
| CCCCNC(=O)CCn1c(=O)c2ccccc2n(Cc2cc(C)ccc2C)c1=O | active: 3.26 µM [sample A] and inactive [sample B] |
| Cc1cc2ncn(CCCCOc3ccccc3)c2cc1C | active: 18.4 µM [sample A] and inactive [sample B] |
| COc1ccc(-c2nc3cc(C)ccn3c2NC2CCCCC2)cc1SC1CCCCC1 | active: 18.4 µM [sample A] and inactive [sample B] |
| O=C1CC[C@H](O)CCN1[C@H](CSc1ccc(Br)cc1)Cc1ccccc1 | inactive [sample A] and active: 14.6 µM [sample B] |
| O=C(C[C@H]1C(=O)N(c2ccc(F)c(F)c2)C[C@@H]1Cc1ccccc1)Nc1ccccc1 | inactive [sample A] and active: 16.4 µM [sample B] |
